Values joined by “and” are separate entries in the source; they are usually repeats but may differ in a detail not shown here. Equal values may be shown once. Out of some 410,000 compounds screened, about 5,000 (1.2%) were called active. Inconclusive means that the source gave no clear call. Such entries were picked first, then a sample of the others. Calls follow the shape of the dose curve; as a rule, active = well fitted inhibition curve with a large enough effect; inconclusive = small, poorly fitted or top-dose-only effect; inactive = no such curve, though single readings can be large or run the other way. A potency beside an inconclusive call is a rough fit, not a confirmed value.
Assay: qHTS for Inhibitors of TGF-b; also: nearly all actives have a fitted effect of over 65% in size
Settings: HepG2 CAGA-GFP TGF-b/SMAD3 reporter, GFP fluorescence, 18 h, TGF-beta stimulated, 500 pg/mL final; series mostly up to 46.1 µM; activity, negative = inhibition: at the top concentration
Outline: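 HEPG2 CAGA-GFP, 1000 cells/well; 2 h settle, 37 C; cpd via pin tool; TGF-b 500 pg/mL final; 18 h, 37 C; GFP imaging ex488/em500-530; %Activity normalised to -TGF-b and +DMSO controls; CRC fit, curve class.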
% is scaled to controls: 0 for no effect and ±100 for the full control effect; potency is read from the fitted curve at half-maximal effect; tags tell the direction and shape of the fitted curve.

Compound | activity, negative = inhibition | Potency
Cc1ccccc1-n1c(CSC(=N)N)nc2ccccc2c1=O | inactive: 4.9% | –
Cc1c(Br)c([N+](=O)[O-])nn1CCCC(=O)Nc1sc2c(c1C(N)=O)CCC(C)C2 (stereo not drawn) | – | inconclusive: 17.8 µM [inhibitor, single point]
COc1ccccc1C(=O)NNC(=O)c1cc2ccccc2cc1O | inactive: -20.1% | –
Cc1oc(-c2ccccc2Cl)nc1CS(=O)CC(=O)NCc1ccc(Cl)cc1 (stereo not drawn) | – | active: 8.91 µM
Cc1cc(C(F)F)n2nc(C(=O)Nc3ccc(C(C)C)cc3)nc2n1 | inactive: -9.29% | –
Cc1ccc2nc(Br)c3c(c2c1)OC(CBr)C3 (stereo not drawn) | inactive: -22.6% | –
COc1ccc(NC(=O)c2c(-c3ccccc3)noc2C)c(OC)c1 | inactive: -3.02% | –
O=C(Nc1cc(C(F)(F)F)ccc1-n1cncn1)c1ccc([N+](=O)[O-])o1 | – | inconclusive: 31.6 µM [inhibitor, single point]
COc1ccc(CCNC(=O)CSc2cn(CCNC(=O)c3cccc(C(F)(F)F)c3)c3ccccc23)cc1OC | – | inconclusive: 22.4 µM [inhibitor, partial curve, poor fit]
CCC1CN(C(=O)Nc2cccc3c2CCCC3)c2cc(Cl)ccc2O1 (stereo not drawn) | – | inconclusive: 0.501 µM [inhibitor, full curve, poor fit]
O=C(Cn1ncc2ccsc2c1=O)N1CCN(c2ccc(F)cc2)CC1 | inactive: 3.6% | –
Cc1cccc(NC(=O)CSc2nnnn2-c2ccc3c(c2)OCCO3)n1 | – | inconclusive: 5.62 µM [inhibitor, single point]
COc1ccc(-n2nnc3c(SCC(=O)NCC4CCCO4)ncnc32)cc1 (stereo not drawn) | – | inconclusive: 35.5 µM [inhibitor, single point]
O=C(COc1ccc(Cl)cc1)Nc1ccc(Cc2ccncc2)cc1 | – | inconclusive: 7.94 µM [inhibitor, partial curve, poor fit]
CCOC(=O)C1=C(CN2CCc3ccccc32)NC(=O)NC1c1cccc([N+](=O)[O-])c1 (stereo not drawn) | – | inconclusive: 12.6 µM [inhibitor, single point]
COc1ccc(N2C(=O)CCC(C(=O)c3ccccc3)=C2C)cc1 | – | inconclusive: 25.1 µM [inhibitor, single point]
O=C1c2cccnc2C(=O)N1CNc1ccc(Cl)cc1 | – | inconclusive: 12.6 µM [inhibitor, partial curve]
Cc1cccc(C(O)c2ncc(-c3cccc(C(F)(F)F)c3)[nH]2)c1C (stereo not drawn) | – | inconclusive: 20 µM [inhibitor, single point]
c1ccc2c(c1)OC(CCCN1CCCCC1)c1ccccc1S2 (stereo not drawn) | inactive: -16.7% | –
COc1ccc(NC(=O)CCn2c(=O)c3cccn3c3cccnc32)cc1Cl | – | inconclusive: 0.126 µM [inhibitor, full curve, poor fit]
COc1cccc(NC(=O)C(Sc2nnc(Nc3ccccc3C)s2)c2ccccc2)c1 (stereo not drawn) | – | inconclusive: 25.1 µM [inhibitor, partial curve, poor fit]
CCOc1ccc(C(=O)Nc2ccccc2CC)cc1[N+](=O)[O-] | inactive: -0.775% | –

Compound | activity, negative = inhibition | Potency
COc1cc(CN2CC(=O)N(c3cccc(Cl)c3C)C2=S)cc(OC)c1OC | inactive: -18.9% | –
CC(=O)Nc1ccc(S(=O)(=O)N2CCC(c3nnc(-c4ccc(C)cc4)o3)CC2)cc1 | – | inconclusive: 12.6 µM [inhibitor, partial curve, poor fit] and inconclusive: 35.5 µM [inhibitor, single point]
O=C(c1ccco1)N1N=C(c2cccs2)CC1c1cc([N+](=O)[O-])ccc1O (stereo not drawn) | – | inconclusive: 6.31 µM [inhibitor, partial curve]
C=CCn1c(SCC(=O)Nc2ccccc2)nnc1-c1cccc(S(=O)(=O)N2CCOCC2)c1 | inactive: 12.7% | –
Cc1cccc(Oc2nc(CN3CCOCC3)nc3sc4c(c23)CCCC4)c1 | inactive: 0.48% | –
OC(c1ccc(F)c(F)c1)c1nc(-c2cccc(C(F)(F)F)c2)cs1 (stereo not drawn) | – | inconclusive: 35.5 µM [inhibitor, single point]
Cc1ccc(CCNc2ncnc3onc(-c4ccc(F)cc4)c23)cc1 | inactive: 9.59% | –
CCCCN(CCC(=O)O)c1ccc(/C=C/c2ccnc3ccccc23)cc1 | – | inconclusive: 3.98 µM [inhibitor, partial curve, poor fit]
Cc1ccc(Nc2c(-c3ccc(Cl)cc3)nc3sccn23)c(C)c1 | – | inconclusive: 12.6 µM [inhibitor, single point]
CC(c1ccccc1)N1CCN(C(=O)CCl)CC1 (stereo not drawn) | – | inconclusive: 35.5 µM [inhibitor, single point]
COc1cccc(N2CCN(C(=O)CCCn3c(=O)[nH]c4ccc(Br)cc4c3=O)CC2)c1 | – | inconclusive: 15.8 µM [inhibitor, partial curve]
CC12CCC=CC1C(c1ccc3ccccc3c1Br)N(Cc1ccccc1)C2=O (stereo not drawn) | – | inconclusive: 17.8 µM [inhibitor, single point]
Cc1cccc(OC(C)C(=O)OCC(=O)N2CCN(c3ccccc3)CC2)c1 (stereo not drawn) | – | inconclusive: 6.31 µM [inhibitor, single point]
Cc1ccc(COC(=O)CCCN=C2NS(=O)(=O)c3ccccc32)cc1 | – | inconclusive: 11.2 µM [inhibitor, partial curve, poor fit]
COC(=O)C1=C(C)NC(C)=C(C(=O)OCC(C)C)C1c1ccccc1[N+](=O)[O-] (stereo not drawn) | – | active: 17.8 µM
Fc1ccc(NCc2ccccc2F)cc1Cl | – | inconclusive: 35.5 µM [inhibitor, single point]
Cc1c(CCO)c(=O)[nH]n1C(=O)c1ccc(F)cc1 | inactive: -0.865% | –
CCCCc1ccc(-n2nnnc2SCC(=O)Nc2cc(OC)c([N+](=O)[O-])cc2C)cc1 | inactive: -9.27% | –
CCOc1ccc(C2=Nn3c(nnc3-c3ccc(OC)cc3)SC2)cc1 | – | inconclusive: 3.55 µM [inhibitor, full curve]
CCCn1c2ccccc2c2cnn(CC(=O)N3CCN(c4ccccc4F)CC3)c(=O)c21 | – | inconclusive: 7.94 µM [inhibitor, partial curve, poor fit]
Cc1ccc(C)c(N2CCN(C(=O)CCCN3C(=S)NC(C)(C)CC3C)CC2)c1 (stereo not drawn) | – | inconclusive: 15.8 µM [inhibitor, single point]

— PubChem BioAssay AID588855 (National Center for Advancing Translational Sciences (NCATS), 2011)
